Here are results for two molecules from patent publication US20250161476A1 (REGENERON PHARMACEUTICALS, INC., priority 2020, published 2025).

For assay [1], the system named is obese GLP1R humanized mice. Put plainly: Body weight in diet-induced obese GLP1R humanized mice. As to conditions: single 25 mg/kg subcutaneous. Format: in vivo, mouse. An excerpt: (§1) To determine body weight and blood glucose lowering effects of three anti-GLP1R antibody-tethered-drug conjugates (ATDCs) in obese animals, mice homozygous for the expression of human GLP1R in place of mouse GLP1R (referred to as GLP1R humanized mice) were placed on high-fat diet (60% kcal % fat) for 6 months. Forty-four, 9-month-old male, GLP1R humanized mice were stratified into six groups of five to eight mice, based on their day 0 body weights. After the stratification, each group was subcutaneously administered with 25 mg/kg of COMP anti-GLP1R mAb1-LP4 (n=8), anti-GLP1R mAb3-LP11 (n=8), anti-GLP1R mAb4-LP11 (n=5), control anti-GLP1R mAb (n=7), isotype control mAb ATDC (n=8) or reference compound (n=8) on day 0.
(§2) The control anti-GLP1R mAb is antibody 5A10 described in US Publication No. US20060275288A1, which is incorporated herein by reference in its entirety. […] COMP anti-GLP1R mAb1-LP4 comprises the same control anti-GLP1R mAb with a N-terminal heavy chain Q-tag.
(§3) On days three and seven post administration and weekly from day fourteen to day fifty-six, body weights of the animals were recorded, and their blood glucose levels were measured with a handheld glucometer. Mean±SEM of percent changes in body weight from day 0 at each time point was calculated for each group and are shown in Table 14. Statistical analyses were performed by two-way ANOVA followed by Bonferroni post-hoc tests, comparing the control antibody group to the other five groups.

Assay [2] relates to obese GLP1R humanized mice. Nature of the assay: Blood glucose in diet-induced obese GLP1R humanized mice. As to conditions: single 25 mg/kg subcutaneous. Format: in vivo, mouse.
Excerpt: as §1, §2, §3

Marks after values point to notes of the source that are not given here.

B1: Anti-GLP1R mAb3-LP11 (conjugate)
heavy: [letters of about 100 residues not shown]GLIAPRPMGFDYWGQGTLVTVSSASTKGPSVFPLAPCSRSTSESTAALGCLVKDYFPEPVTVSWNSGALTSGVHTFPAVLQSSGLYSLSSVVTVPSSSLGTKTYTCNVDHKPSNTKVDKRV[letters of human IgG4 Fc with S228P (EU numbers) not shown]
light: LLQGSGDIQMTQSPSSVSASVGDRVTITCRASQGINSWLAWYQQKPGKAPKLLIYAASSLQSGVPSRFSGSGSGTDFTLTISSLQPEDFATYYCHQADSFPYTFGQGTKLEIKRTVAAPSVFIFPPSDEQLKSGTASVVCLLNNFYPREAKVQWKVDNALQSGNSQESVTEQDSKDSTYSLSSTLTLSKADYEKHKVYACEVTHQGLSSPVTKSFNRGEC
Regarding B1, the “percent body weight change from day 0, Mean” value (shortened to “percent body weight change”) is given as 0% in assay [1] (day 0); −7.8% in assay [1] (day 3); −11.3** % in assay [1] (day 7); −15.9**** % in assay [1] (day 14); −15.4**** % in assay [1] (day 20); −13.0**** % in assay [1] (day 28). In addition, the “percent body weight change” value in assay [1] (day 35) is given as −13.0**** %; in assay [1] (day 42), −12.6**** %; in assay [1] (day 49), −12.1*** %; in assay [1] (day 56), −13.2**** %. In addition, the “blood glucose level, Mean” value in assay [2] (day 0) was 209; in assay [2] (day 3), 157**; in assay [2] (day 7) it was 154*; in assay [2] (day 14) it was 162; in assay [2] (day 20) it was 184; in assay [2] (day 28), 190. The “blood glucose level, Mean” value in assay [2] (day 35) is recorded as 200; in assay [2] (day 42) it was 196; in assay [2] (day 49), 214; in assay [2] (day 56), 204.

B2: Anti-GLP1R mAb4-LP11 (conjugate)
heavy: QVQLVESGGGVVQPARSLRLSCAASGFAFSRSAMHWVRQAPGKGLEWVAVISYDGSNKYYTDSVKGRFTISRDNSKNTLYLQMNTLRAEDTALYYCAKMYTTMDSFDYWGQGTLVTVSSASTKGPSVFPLAPCSRSTSESTAALGCLVKDYFPEPVTVSWNSGALTSGVHTFPAVLQSSGLYSLSSVVTVPSSSLGTKTYTCNVDHKPSNTKVDKRV[letters of human IgG4 Fc with S228P (EU numbers) not shown]
light: LLQGSGDIQLTQSPSFLSASVGDRVTITCWASQGISSYLAWYQQKPGKAPKLLIYAASTLQSGVPSRFSGSGSGTEFTLTISSLQPEDFALYYCQQLNSYPRTFGQGTKVEIKRTVAAPSVFIFPPSDEQLKSGTASVVCLLNNFYPREAKVQWKVDNALQSGNSQESVTEQDSKDSTYSLSSTLTLSKADYEKHKVYACEVTHQGLSSPVTKSFNRGEC
On to B2, for which the “percent body weight change” value is on record as 0% in assay [1] (day 0); −8.3% in assay [1] (day 3); −11.3* % in assay [1] (day 7); −13.2** % in assay [1] (day 14); −10.9* % in assay [1] (day 20); −8.9* % in assay [1] (day 28). For the same molecule, the “percent body weight change” value is on record as −7.2% in assay [1] (day 35), −4.3% in assay [1] (day 42), −3.1% in assay [1] (day 49) and −2.6% in assay [1] (day 56). Moreover, the “blood glucose level, Mean” value in assay [2] (day 0) is recorded as 221; in assay [2] (day 3) it was 143***; in assay [2] (day 7), 155*; in assay [2] (day 14) it was 178; in assay [2] (day 20), 205; in assay [2] (day 28), 188. Also, the “blood glucose level, Mean” value in assay [2] (day 35) is reported as 222; in assay [2] (day 42), 224; in assay [2] (day 49), 226; in assay [2] (day 56), 229.
